Reference: the supplement of paper PMC3334620
Over roughly 33,000 sequences, “E-score (-0.5 to 0.5)” has its median near -0.036; the highest 2% begin near 0.37. The list shows a part of the results.

molecular target: T1, Yer064c (UniProt P40041); assay: PBM E-score (8-mer binding enrichment) (E-score (-0.5 to 0.5)); higher = stronger / more preferred TF binding; most listed sequences are background and not binding sites; conditions: protein concentration: 200 nM; construct: GST-full length
T1 sequence: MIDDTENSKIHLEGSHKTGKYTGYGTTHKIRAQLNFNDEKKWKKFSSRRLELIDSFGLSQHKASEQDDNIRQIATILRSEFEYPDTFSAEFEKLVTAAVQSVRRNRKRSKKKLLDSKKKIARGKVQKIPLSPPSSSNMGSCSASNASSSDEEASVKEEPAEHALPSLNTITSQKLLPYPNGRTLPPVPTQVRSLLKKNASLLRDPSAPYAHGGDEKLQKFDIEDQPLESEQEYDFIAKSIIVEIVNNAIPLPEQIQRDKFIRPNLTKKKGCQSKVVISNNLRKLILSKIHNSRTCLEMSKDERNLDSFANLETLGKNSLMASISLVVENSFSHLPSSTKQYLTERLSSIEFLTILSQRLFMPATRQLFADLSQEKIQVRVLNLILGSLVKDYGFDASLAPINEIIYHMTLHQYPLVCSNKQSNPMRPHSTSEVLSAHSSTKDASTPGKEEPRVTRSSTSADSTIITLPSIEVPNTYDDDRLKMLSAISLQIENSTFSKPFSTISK
How it was run: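 Using PURExpress in vitro transcription/translation, GST-tagged yeast transcription factors were made in full-length or DNA-binding-domain form. These were applied at about 100-200 nM to double-stranded universal all-10-mer Agilent arrays, and bound protein was detected with fluorescent anti-GST. Scans were normalised with masliner before the Universal PBM Analysis Suite assigned E-scores to ungapped eight-base words pooled with their reverse complements.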

| Sequence | PBM E-score |
| --- | --- |
| GCACCATA | -0.118 |
| CTGCCGTA | -0.333 |
| GGTTCGTA | 0.0347 |
| CCCTTCAC | -0.0295 |
| ACAGCCTC | -0.308 |
| CATTTTAG | -0.0477 |
| CGCTCCAC | -0.32 |
| TCTTTACA | 0.105 |
| AGCTAAAA | 0.029 |
| ATGGCATG | -0.0482 |
| ATTCGAAG | 0.15 |
| TAGAGCAA | -0.131 |
| GTCGGCGA | 0.141 |
| TGATCGAA | -0.0776 |
| CAGCTCAG | -0.107 |
| ATATTTCC | 0.074 |
| CCTGTCCC | -0.203 |
| AATGGTGT | 0.0349 |
| TATGCCGA | 0.0735 |
| GATTAAAC | 0.288 |
| AGAACCTG | -0.15 |
| ATGTCGTA | 0.0166 |
| CGTGTCCA | -0.15 |
| TAACGATA | 0.123 |
| AGGGACTC | 0.242 |

| Sequence | PBM E-score |
| --- | --- |
| AGGGCGGA | -0.229 |
| ACCAAGTG | -0.0779 |
| CCGCTTCC | -0.179 |
| ACAGTTGC | -0.163 |
| ATTTACCA | 0.0521 |
| CCACTTAA | 0.0279 |
| AGGTGCTC | -0.347 |
| CATCTACG | 0.104 |
| AAGAGATC | -0.185 |
| AGCCCCAC | -0.227 |
| AAACTCGC | -0.168 |
| ACAGTGGC | -0.154 |
| CGTTCAAG | -0.0964 |
| GGGCTGGA | -0.21 |
| GCAGAGGA | -0.194 |
| AACACAGT | 0.0823 |
| TCCCATAA | -0.127 |
| TACCTCGA | 0.0549 |
| CAGTAACG | -0.0332 |
| GAGAGTAC | 0.134 |
| GATACCGA | 0.0724 |
| GGATACCA | 0.0154 |
| AAGGTCGT | -0.0241 |
| AGGGAGTC | 0.44 |
| AAAGCCTC | -0.184 |

| Sequence | PBM E-score |
| --- | --- |
| ATAAATCA | 0.277 |
| AGTGGAGC | -0.0359 |
| AGGTGGCA | 0.00435 |
| CGGAGCTA | -0.236 |
| CCGGTGAA | 0.00111 |
| TATGCCAA | -0.101 |
| AACTTGAC | 0.212 |
| CTACGGAA | 0.0329 |
| GCGCCGAC | -0.0263 |
| CCCTGCAC | -0.0944 |
| GCATTAGA | 0.0794 |
| GGCAACCA | -0.0925 |
| AGATGAAG | -0.126 |
| GCCTGTTA | -0.211 |
| ACTCATGG | 0.34 |
| ATTTCTTC | -0.058 |
| AGGGGCTG | -0.165 |
| CCATTGCA | 0.0942 |
| ACCGACCG | -0.184 |
| AGTTCTAC | -0.0918 |
| CAATTGAC | 0.125 |
| CTCGAACA | 0.186 |
| ACTTACTG | 0.201 |
| CCGTAGCC | -0.188 |
| CCACCGCC | -0.255 |

| Sequence | PBM E-score |
| --- | --- |
| GAGACTCA | 0.467 |
| ATTTGGCA | -0.0964 |
| CTGCTTAA | -0.0451 |
| CTGCCCAG | -0.139 |
| CCAGTTAG | 0.0237 |
| ACAACGTG | -0.0777 |
| CTGAAGTA | 0.203 |
| CAGCTAAG | -0.0893 |
| CGGCAACG | -0.0749 |
| GGCTAGAC | -0.135 |
| CTATCCTA | -0.0287 |
| CGGTAATC | 0.237 |
| GCAAATCC | -0.126 |
| AGCATCCA | -0.205 |
| CTCCACAC | -0.0862 |
| ATGGTTAG | 0.116 |
| AACCGGAG | -0.0933 |
| GGGGAGCA | -0.168 |
| CTGCAAAG | 0.0505 |
| GCCGCCAC | -0.161 |
| CGTTAGCC | 0.0926 |
| TAAGCGGA | 0.0766 |
| CAGAACTA | -0.086 |
| CCCAACCC | -0.151 |
| ACGCCACT | -0.186 |

| Sequence | PBM E-score |
| --- | --- |
| ATCCAATA | -0.0774 |
| AGTGTACG | 0.0235 |
| AGCTACCG | -0.148 |
| CCGTTCTC | -0.298 |
| CGCAGCCG | -0.16 |
| AAATAGGA | 0.0809 |
| AACTGCTG | -0.205 |
| AGAGGGTA | -0.0838 |
| CACTGACG | -0.077 |
| GATAATTA | 0.0577 |
| CGCTCAAA | -0.0349 |
| CCCCGGAG | -0.24 |
| AATTCTCT | -0.285 |
| GTCACAAA | 0.261 |
| GCCGCTCC | -0.231 |
| ACACCTGT | 0.0517 |
| CAGTTTGA | 0.113 |
| CGCTGCAA | 0.0297 |
| AAGGCGCT | -0.208 |
| TATAAACA | 0.165 |
| TATGTGCA | -0.113 |
| CGCTGACG | -0.253 |
| AATCTGCC | -0.0737 |
| ACGAAACA | -0.0814 |
| GTCTCCGA | 0.0595 |

| Sequence | PBM E-score |
| --- | --- |
| ACTGGCCA | 0.147 |
| AAATTAAA | 0.119 |
| GTCTGCCA | -0.0597 |
| AACGTCTT | -0.113 |
| GTACCCTA | -0.129 |
| GCATCAGA | 0.122 |
| ACTAAACT | 0.242 |
| CGTTTAAC | 0.108 |
| AATTGGCT | 0.0484 |
| ATGACAAA | -0.03 |
| CGAGCTAG | 0.00121 |
| AAGCCACC | -0.116 |
| CCTGAGAG | -0.0818 |
| ACCCGTTC | -0.184 |
| AACCGCAT | 0.0875 |
| AGTTCGCA | -0.0258 |
| ATCGCGAC | 0.149 |
| CCCAACGG | -0.0813 |
| ATCTAACC | -0.0261 |
| AGAGGACA | -0.186 |
| GTGTCATA | 0.112 |
| CGAAGGCG | -0.17 |
| GACAGGCC | -0.241 |
| CGAAAGGC | -0.281 |
| GCGGCAGA | -0.176 |

| Sequence | PBM E-score |
| --- | --- |
| AAAATTGA | 0.0494 |
| AGTTTGCC | -0.178 |
| CTACTGTA | -0.00156 |
| TGGTCTAA | -0.00513 |
| CCCTACCA | -0.127 |
| CGCCGGTC | -0.19 |
| CCGAGCCC | -0.0288 |
| ATAGTTAA | 0.0478 |
| GACAGCTC | -0.216 |
| GTTGAGCA | -0.148 |
| GAAAGGAC | 0.00876 |
| GATTGTGA | 0.176 |
| CGAAGCGC | -0.115 |
| TACTCTCA | 0.0897 |
| GGGACATA | -0.146 |
| CCTTGTCG | -0.155 |
| ATCTCATG | 0.167 |
| AGGGCTCC | -0.31 |
| AACTCAAG | 0.116 |
| CGAAAGCG | -0.184 |
| AGTTGGTA | 0.109 |
| ACTTGGCG | -0.0875 |
